Assay results taken from PubChem BioAssay AID485364 (National Center for Advancing Translational Sciences (NCATS), 2010).
Values joined by “and” are separate entries in the source; they are usually repeats but may differ in a detail not shown here. Equal values may be shown once. Hit rate of the full screen: of about 360,000 compounds, about 11,000 (3.1%) were called active. Inconclusive results, whose numbers are uncertain, are shown with a selection of clear calls. Calls come from the whole dose curve; as a rule, active = well fitted inhibition curve with a large enough effect; inconclusive = small, poorly fitted or top-dose-only effect; inactive = no such curve, though single readings can be large or run the other way. A potency beside an inconclusive call is a rough fit, not a confirmed value.

The compounds below were run against Schistosoma mansoni thioredoxin glutathione reductase (TGR) (UniProt Q962Y6) (assay: qHTS Assay for the Inhibitors of Schistosoma Mansoni Peroxiredoxins). Conditions: purified TGR, DTNB reduction, TNB absorbance 405 nm; series mostly up to 114 µM.
Method in brief: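 First, TGR (20 nM dispensed) and NADPH were mixed with compound. Second, a 15 min room-temperature incubation followed. Third, further NADPH and then DTNB were added to start the reaction. Finally, TNB absorbance was monitored kinetically.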
Note: nearly all actives have a fitted effect of over 60% in size.
Potency is the fitted concentration of half-maximal effect; tags give direction and shape of the fitted curve.

For `CC1CN(C(=O)c2cccc(S(=O)(=O)N3CCN(c4ccc(F)cc4)CC3)c2)CC(C)O1` (centres undefined), which Potency is on record?
Its Potency is inconclusive: 89.1 µM [inhibitor, partial curve, poor fit].

How did the Potency turn out when `Cc1ccc2c(c1)C1CN(C)CCC1N2C(=O)c1ccc(Br)o1` (centres undefined) was run?
Its Potency is inconclusive: 89.1 µM [inhibitor, single point].

Which Potency does the source give for `O=C1CC(Nc2ccc(N3CCOCC3)cc2)C(=O)N1c1cccc(C(F)(F)F)c1` (centres undefined) here?
The Potency was active: 28.2 µM.

How did the Potency turn out when `COc1ccc(-c2cc(C(=O)Nc3cc(C)nn3-c3ccccc3)no2)cc1OC` was run?
The Potency was inconclusive: 3.55 µM [inhibitor, single point].

`CC(=O)c1cccc(NC(=S)Nc2cccc3ccccc23)c1` was tested. Which Potency did it give?
Its Potency is inconclusive: 12.6 µM [inhibitor, full curve].

For `CC(=O)c1ccc(NC(=S)Nc2cccc3ccccc23)cc1`, which Potency is on record?
The Potency was inconclusive: 44.7 µM [inhibitor, partial curve].

For `O=C1C=C(c2cccc3c2sc2ccccc23)C[C@@H](c2ccc(F)cc2)C1`, which Potency is on record?
The Potency was “inactive”.

`COC(=O)C1=CN(c2ccc(F)cc2)C=C(C(=O)OC)C1c1ccc([N+](=O)[O-])cc1` was tested. Which Potency did it give?
Its Potency is “inactive”.

With `Oc1ccc(-c2cn3c(n2)SCC3)cc1O` as the compound, how does the Potency read?
Its Potency is inconclusive: 2 µM [inhibitor, full curve].

Which Potency does the source give for `CCOC(=O)c1ccc(N2N=C(C)/C(=C/C=C/c3ccco3)C2=O)cc1` here?
The Potency was inconclusive: 11.2 µM [inhibitor, partial curve, poor fit].

For `CCOC(=O)c1cc2c(=O)n3ccccc3nc2n(Cc2ccco2)c1=NC(=O)c1cccc(Br)c1`, which Potency is on record?
Its Potency is active: 2.24 µM.

With `Cc1ccc(Cl)cc1N1CCN(C(=O)c2noc3c2CCCC3)CC1` as the compound, how does the Potency read?
Its Potency is “inactive”.

For `CCN(CC)CCNCc1ccc(-c2ccc(Cl)cc2)o1`, which Potency is on record?
The Potency was inconclusive: 31.6 µM [inhibitor, partial curve].

How did the Potency turn out when `CSc1nnc(C)c(=O)n1COC(=O)c1ccc([N+](=O)[O-])cc1` was run?
The Potency was inconclusive: 44.7 µM [inhibitor, partial curve].

How did the Potency turn out when `O=C(O)C1Cc2ccccc2N2CCCC12` (centres undefined) was run?
Its Potency is inconclusive: 89.1 µM [inhibitor, single point].

`NC(=O)NC(=O)C(c1ccccc1)N1CCN(S(=O)(=O)c2ccc(Br)s2)CC1` (centres undefined) was tested. Which Potency did it give?
Its Potency is “inactive”.

With `COc1cc2c(cc1OC)C(c1cc(Br)ccc1F)N(C(=O)CCl)CC2` (centres undefined) as the compound, how does the Potency read?
Its Potency is active: 0.794 µM.

`Cc1ccccc1Nc1nc(CSc2nnc(-c3ccoc3C)n2C)cs1` was tested. Which Potency did it give?
The Potency was active: 35.5 µM.

For `COc1ccc(NS(=O)(=O)c2ccc3c(c2)[C@H]2C=CC[C@H]2[C@@H](c2ccc(C(=O)O)cc2)N3)cc1`, which Potency is on record?
Its Potency is inconclusive: 22.4 µM [inhibitor, partial curve] and inconclusive: 35.5 µM [inhibitor, partial curve].
